B1: LINE1-full (parent)
chain: UACGUAGGUGGUUUUCCCCUGAUAGUGCUAAGGGGGCCUGGAAGUUUGGACUGGGCAGAGCUCAACACAGCGUGGCAAAGUGGCUGUGGCUAGACUGCCUCUCUGGAUUCCUCGUCACUCAGCAGGGCAUCUCUGAGAGAAAUGCC

Read counts are not given, so values of variants with three or more changes are uncertain.

Variants of B1 are the subject of this data set. Kind of data set: self-cleavage, relative activity (ratio to wild type); higher = more cleavage; in vitro, sequencing; the parent is a self-cleaving ribozyme.
With C17U G74A A107G A117G, the self-cleavage was determined as 1.3. The figure for C19U A24U U26A U47C C84U is 0.13; for C16U U46A U104A it is 0.96; for C18A C133U A140G it is 0.93. With U15C U73A U100A U104C U109C, the self-cleavage worked out at 2.45. For C18A A65G A140U U143C, the self-cleavage was 0.1.

Turning to U15C U62C C71U, the self-cleavage was 0. Turning to U15C A65G A121G, the self-cleavage was 0.31. For the variant U15C U26A U45C U46A U62C U73A C99U A140G, the self-cleavage stood at 0.11. Turning to U15A U85C U87C, the self-cleavage came out at 0. Regarding U15C U39C A65U C103A, the self-cleavage was found to be 0.25. With U15C A140G U143C, the self-cleavage is 1.78. For C19A U96C A129U, the self-cleavage was 0.07. In the case of U15C A24G A43G U102A, the self-cleavage worked out at 2.14.

On to U15C U20C A59U A79G U96C, for which the self-cleavage amounted to 0.61. In the case of U15C A77G U104A G135A, the self-cleavage came to 2.34.

Turning to U15A U20A A129U, the self-cleavage came out at 0.91. The figure for C18U C113U A121G is 0.81. In the case of U15C A42G A140G A142G, the self-cleavage was found to be 1.58. With U15C A57U U73A U119C C128U, the self-cleavage was 0.1. To U15A U62C U102C belongs 0.18; to C18U U26A U52C A69G A129G A141G, 0; to C18A C38U A107G, 1.32. Turning to C18U A50G U109A A140G, the self-cleavage was found to be 0.09. Turning to U15C U20A A65G, the self-cleavage stood at 0.11. As to C18U A65G C71U, the self-cleavage worked out at 0.21. For U15C A78G C145U, the self-cleavage is 1.05. For C17U U46A U134C, the self-cleavage amounted to 1.08. To U15C U39A A64G A77G C145U belongs 0.56; to C16A U26A C61U, 0.09; to U15C U115C A138U, 1.09. The figure for U15C U26A U46C is 1.93; for U15C C17U A69G A77U it is 0.13; for C19U A22G U104A U130C A140G it is 0. To C19U A24G U29C A69G belongs 0; to U15C A69U A121G A141U, 0; to U15C U85C U96A, 0.15. Consider C16U U62C U109C, for which the self-cleavage stood at 0.05.

For the variant U15C A67U A107G, the self-cleavage amounted to 0.19. U15C A64C A117G: the self-cleavage was found to be 0.42.

In the case of U15C A42G A59U A79G G82A A121G, the self-cleavage worked out at 0.35. Consider U15A U130C A138G, for which the self-cleavage was found to be 1.04. Take U15C A42G U102C: the self-cleavage was 1.02. In the case of C17A U108C C113U, the self-cleavage came to 1.06. Consider U15C U96A G114U C120G, for which the self-cleavage was determined as 0.06. As for C19U A57G U104A, the self-cleavage came out at 0.26. The figure for U15A U47A A59G A65G A107G is 0.

In the case of U15C A31G U102C, the self-cleavage is 0. As for U15C A69G A78G U87A U104A, the self-cleavage amounted to 0.08.

As to C16U U134C G139A, the self-cleavage came out at 0.59. C19U A30U U100C: the self-cleavage was found to be 1.84. Turning to C18A U85A G89A, the self-cleavage worked out at 0.11.

For U15A U102C U115C, the self-cleavage came out at 0. Consider U15A G49U A107G, for which the self-cleavage came out at 0.64. The figure for U15C A64G A124G A129G is 0.27; for U15C U45C A78G C145U it is 1.46; for U15A U109C C113A it is 1.25. With C17U U20G A30G, the self-cleavage amounted to 0.61. U15C U20A U130G: the self-cleavage came out at 1.73. Consider U15C U26C U91C, for which the self-cleavage is 0.42. On to C16U U23C U81C U109C, for which the self-cleavage worked out at 1.84. To C19U A50G U100A belongs 0.28; to C18U U23C A79C U112C U132C, 2.12; to C19U A59U U91C, 0.28.

Regarding U15A U26C C133U, the self-cleavage was found to be 1.24. Take U15A U73A C131A: the self-cleavage stood at 1.24. C19U A43G A64U C76U: the self-cleavage was 1.15.

Turning to C19U A78G A79U U91A U130A, the self-cleavage worked out at 0.94.

As for C17U U20A A57U U104A, the self-cleavage amounted to 0.07. For U15C U20A U132G A141U, the self-cleavage came out at 0.71.

For U15A G48U A138U, the self-cleavage came out at 0.59. On to C18A A140G A141G, for which the self-cleavage was 0.84. The figure for U15C A43G U115A G126U is 1.26; for U15C U47A C111U it is 1.74; for U15C A79G A142G it is 1.15.

Take U15G G32A G58A A138C: the self-cleavage was 0.09. To U15C A30G U46A U108C belongs 1.61. For U15A U23C U130C, the self-cleavage turned out to be 1.36. Turning to C19U A42G C51A, the self-cleavage was 0.62. As for U15C U62G U115C, the self-cleavage came out at 2.04. To U15C C17A A43G belongs 0.93; to U15C C37U C51U U96A, 0.07; to U15A U20G U109G A121U A129U, 1.93. Turning to U15C C71G A77G, the self-cleavage was found to be 0.68. With U15C A65U U143A, the self-cleavage amounted to 0.32. In the case of C17U A30G U109A, the self-cleavage worked out at 0.29.

Consider C19A U104A A107G, for which the self-cleavage was determined as 0.73. With C17G A43G A50G A79U U134C, the self-cleavage came to 1.25.

In the case of U15C C37A U62C U119C A141G, the self-cleavage is 0.07. U15G U62A G106U U108C: the self-cleavage was found to be 0.1. The figure for U15C A64U A138G is 1.09; for U15G C51A A59G it is 0.3. U15C C19U A92G A117U C146U: the self-cleavage came out at 0.23. The figure for U15C A117G A124U is 0.8. Turning to C17U U20C A117G, the self-cleavage came to 1.31.

C17U U20A A64U A92U U102C: the self-cleavage was 0.26.

For C19U A69G C90U U109C U115A U119C, the self-cleavage turned out to be 0. The figure for U15C A59U U102A G144A is 0.34; for C17A A22G A50U U62C U91A A140G it is 0.09.

Take U15C A94G U115C A138G: the self-cleavage came out at 1.31.

For U15C U39C U46C, the self-cleavage was found to be 1.64. Consider U15C C19U A124G, for which the self-cleavage worked out at 0.51.

Consider U15C A50G G72A A141G, for which the self-cleavage came to 0.78. Take U15C A59G U104C: the self-cleavage was found to be 0. On to C16U C19U A59G, for which the self-cleavage turned out to be 0.09. Take U15C A57U U62C A117U: the self-cleavage was 0.1. U15C A22G G53A U108C: the self-cleavage was 2.14. The figure for C17U A64U U73A U87A A140G is 0.02; for C18A C38A G137U it is 0.56; for U15C A22U U46C U85C G114U A141G it is 0.28. As for C18U A30G A50G A65G C95U U100C, the self-cleavage came to 0.

Regarding C17U A42G U46C U119A, the self-cleavage turned out to be 1.02. The figure for C17A A43U U108C A140G is 1.11. With U15A U46C U109G, the self-cleavage came to 1.93. As for C16U U29C A138G, the self-cleavage turned out to be 1.23. Regarding C18G A22C C28U A121U G126A G139A, the self-cleavage worked out at 0.49. The figure for U15C G35U A42U U46A A142U is 0.8; for U15C C38A U62A it is 0.03; for U15C A22U G72U C131U it is 1.34. Regarding U15C U73A A79G, the self-cleavage worked out at 1.3.

Regarding U15A U47C G49U U73C U81A A141U A142G, the self-cleavage is 1.36.

Turning to C17U A65G A79U A141G, the self-cleavage is 0.04. For U15C G53A U108A, the self-cleavage was 1.15. Consider C18U U73A U109C A117G, for which the self-cleavage came to 0.

As for C19A U23C U39G, the self-cleavage came to 1.86. Consider C17U U47A A64G U115C A117G U119A, for which the self-cleavage turned out to be 0.

As for U15C U47C G75C U96C, the self-cleavage is 0.

As for C16U A59U G127U, the self-cleavage stood at 0.91. C17U A121G A141G: the self-cleavage worked out at 0.92.

Take C16A G89A U112A U130C: the self-cleavage amounted to 0.08. Take C18A C103A U104C: the self-cleavage amounted to 1.06.

U15C U62C U85A C113U U143C: the self-cleavage was 0.04. Take C16U A42G U100C A136U: the self-cleavage was determined as 1.02. On to U15C U26A A124U, for which the self-cleavage was determined as 0.79.

Consider U15C C84A U104C, for which the self-cleavage worked out at 0.13.

As to C16U U73C U109C G114A, the self-cleavage was 1.47. Take U15C U96C A136G: the self-cleavage is 0.14.

Turning to C17U A121G U134C, the self-cleavage amounted to 0.69. As to U15C A42G A121U A138G, the self-cleavage came to 1.78. To U15C U20C U46C A67C belongs 0; to U15C A69U A136G U143C, 0.21.

For C18U G25A A42G A65G U119C, the self-cleavage was 0.12. As for U15G U73A G75U A107G, the self-cleavage turned out to be 0.19. For the variant C18A A57G U119A, the self-cleavage turned out to be 0.54. Consider U15C G127A U143C, for which the self-cleavage was 1.55.

On to U15C A43G C99A, for which the self-cleavage was determined as 0.74.

As to U15C A107U U112A, the self-cleavage was 1.28. Take U15C G41U U96C: the self-cleavage amounted to 0.12.

For U15C U91A A94G U130C C131U A140G, the self-cleavage worked out at 0.38. For the variant U15C U52A A64G U85C, the self-cleavage is 0.

Take C19U A42G U134A: the self-cleavage turned out to be 0.76.

As to U15C A42G A142G, the self-cleavage came to 1.64. The figure for U15A U23C A24G G72A U87A U96A A141U is 0.04; for C16U U45A U85C A140G it is 0.11. For the variant U15C U39A A57U U132C, the self-cleavage came out at 0.69. With C18U A30G U112A, the self-cleavage amounted to 0.51. As to U15C U108A U109C, the self-cleavage was found to be 2.15. In the case of C19U A30U A43G, the self-cleavage was determined as 0.38. For U15C U20C U132A, the self-cleavage was 1.75. Turning to U15C C37A U47C U104C, the self-cleavage amounted to 1.63.

Regarding U15C U39C C133A, the self-cleavage was found to be 0.95. To C17U U20C G33U G53A U132C U143A belongs 0.87.

Consider U15C A94G U108C, for which the self-cleavage is 0.77. To C19A C131U A138U belongs 1.45. In the case of U15C U45G U73C, the self-cleavage was 0. In the case of U15C U109C A117C A136U, the self-cleavage worked out at 2.47. On to C16A C37G A136U A138U, for which the self-cleavage was 0.
